Measured values from the supplement of paper PMC11741623.
Some of the results follow. Interaction screen of human proteins with wild-type SARS-CoV-2 proteins by split-DHFR complementation in yeast, 1 µg/mL methotrexate. Value = fitness of the pair (three or more lineages) minus that of the viral protein without a human partner, on a scale set by negative (0) and fused positive (1) controls, mean of up to three cultures; higher = more likely to interact. Active = false discovery rate below 0.05 (one-sided t-test) in at least one culture. Nearly all pairs are not hits, and differences among them are mostly noise (correlation between cultures about 0.3); most hits were seen in one culture only. Human sequences are the Swiss-Prot entries looked up by gene name; the clone may be another isoform. NSP2 values were corrected by the authors for a growth advantage. Listed are human proteins with a hit and a random twelfth of the others.

B1: INIP, Q9NRY2 (protein)
chain: MAANSSGQGFQNKNRVAILAELDKEKRKLLMQNQSSTNHPGASIALSRPSLNKDFRDHAEQQHIAAQQKAALQHAHAHSSGYFITQDSAFGNLILPVLPRLDPE
B2: IGIP, A6NJ69 (protein)
chain: MCSYYHMKKRSVSGCNITIFAVMFSHLSAGKSPCGNQANVLCISRLEFVQYQS
B3: FAM131B, Q86XD5 (protein)
chain: MDSTSSLHGSSLHRPSTEQTRTDFSWDGINLSMEDTTSILPKLKRNSNAYGIGALAKSSFSGISRSMKDHVTKPTAMGQGRVAHMIEWQGWGKTPAVQPQHSHESVRRDTDAYSDLSDGEKEARFLAGVMEQFAISEATLMAWSSMDGEDMSVNSTQEPLGCNYSDNYQELMDSQDALAQAPMDGWPHSYVSQGMYCLGSSDAWEASDQSLIASPATGSYLGPAFDDSQPSLHEMGPSQPASGYSALEPPPLLGGDTDWAPGVGAVDLARGPAEEEKRPLAPEEEEDAGCRDLESLSPREDPEMSTALSRKVSDVTSSGVQSFDEEEGEANN
B4: KDELR3, O43731 (protein)
chain: MNVFRILGDLSHLLAMILLLGKIWRSKCCKGISGKSQILFALVFTTRYLDLFTNFISIYNTVMKVVFLLCAYVTVYMIYGKFRKTFDSENDTFRLEFLLVPVIGLSFLENYSFTLLEILWTFSIYLESVAILPQLFMISKTGEAETITTHYLFFLGLYRALYLANWIRRYQTENFYDQIAVVSGVVQTIFYCDFFYLYVTKVLKGKKLSLPMPI

These binders were tested against SARS-CoV-2 E (assay: yeast fitness gain over the viral ORF with no human partner (scaled fitness); higher = more likely to interact).
Procedure: (§1)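 Split mouse DHFR complementation in pooled diploid yeast: human ORFeome clones carry one fragment and viral ORFs the other; barcoded lineages compete in 1 µg/mL methotrexate and fitness is read by barcode sequencing in up to three cultures.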
For B1, the yeast fitness gain was inactive: -0.0432.
B2 was tested, and the yeast fitness gain was inactive: -0.0661.
In the case of B3, the yeast fitness gain is reported as inactive: -0.0415.
B4 was tested, and the yeast fitness gain was inactive: -0.1.

Each binder was assayed against SARS-CoV-2 M in the same assay as above.
Procedure: as §1
In the case of B1, the yeast fitness gain is reported as inactive: -0.105.
With B2 the yeast fitness gain was inactive: 0.0469.
B3 was tested, and the yeast fitness gain was inactive: 0.0343.
With B4 the yeast fitness gain was inactive: -0.0841.

Each binder was assayed against SARS-CoV-2 N in the same assay as above.
Procedure: as §1
In the case of B1, the yeast fitness gain is reported as inactive: 0.0429.
In the case of B2, the yeast fitness gain is reported as inactive: -0.0127.
B3 was tested, and the yeast fitness gain was inactive: 0.0348.

The binders below were run against SARS-CoV-2 NSP1 in the same assay as above.
Procedure: as §1
With B1 the yeast fitness gain was inactive: -0.156.
In the case of B2, the yeast fitness gain is reported as inactive: 0.0191.
With B3 the yeast fitness gain was inactive: 0.00542.
With B4 the yeast fitness gain was inactive: 0.0514.

The binders below were run against SARS-CoV-2 NSP10 in the same assay as above.
Procedure: as §1
With B1 the yeast fitness gain was inactive: -0.0553.
B2 was tested, and the yeast fitness gain was inactive: 0.0347.
In the case of B3, the yeast fitness gain is reported as inactive: 0.0184.
For B4, the yeast fitness gain was inactive: 0.0123.

These binders were tested against SARS-CoV-2 NSP12 in the same assay as above.
Procedure: as §1
B1 was tested, and the yeast fitness gain was inactive: 0.025.
B2 was tested, and the yeast fitness gain was inactive: 0.0574.
For B3, the yeast fitness gain was inactive: 0.0158.

These binders were tested against SARS-CoV-2 NSP13 in the same assay as above.
Procedure: as §1
With B1 the yeast fitness gain was inactive: 0.0592.
B2 was tested, and the yeast fitness gain was inactive: -0.0116.
B3 was tested, and the yeast fitness gain was inactive: 0.0406.

Each binder was assayed against SARS-CoV-2 NSP14 in the same assay as above.
Procedure: as §1
B1 was tested, and the yeast fitness gain was inactive: 0.12.
With B2 the yeast fitness gain was inactive: 0.0402.
B3 was tested, and the yeast fitness gain was inactive: 0.0592.

These binders were tested against SARS-CoV-2 NSP15 in the same assay as above.
Procedure: as §1
For B1, the yeast fitness gain was inactive: 0.0244.
In the case of B2, the yeast fitness gain is reported as inactive: -0.0797.
In the case of B3, the yeast fitness gain is reported as inactive: 0.0338.
With B4 the yeast fitness gain was inactive: 0.0667.

These binders were tested against SARS-CoV-2 NSP16 in the same assay as above.
Procedure: as §1
B1 was tested, and the yeast fitness gain was inactive: 0.0439.
For B2, the yeast fitness gain was inactive: -0.0885.
With B3 the yeast fitness gain was inactive: 0.000948.

These binders were tested against SARS-CoV-2 NSP2 in the same assay as above.
Procedure: as §1
For B1, the yeast fitness gain was inactive: -0.0339.
In the case of B2, the yeast fitness gain is reported as inactive: -0.165.
In the case of B3, the yeast fitness gain is reported as inactive: -0.0948.
For B4, the yeast fitness gain was inactive: -0.29.

The binders below were run against SARS-CoV-2 NSP4 in the same assay as above.
Procedure: as §1
In the case of B1, the yeast fitness gain is reported as inactive: 0.106.
In the case of B3, the yeast fitness gain is reported as inactive: -0.0574.
For B4, the yeast fitness gain was active: 0.746.

What follows are binders tested against SARS-CoV-2 NSP5 in the same assay as above.
Procedure: as §1
B1 was tested, and the yeast fitness gain was inactive: 0.00332.
B2 was tested, and the yeast fitness gain was inactive: -0.0712.
In the case of B3, the yeast fitness gain is reported as inactive: 0.0125.
With B4 the yeast fitness gain was inactive: 0.0823.

What follows are binders tested against SARS-CoV-2 NSP6 in the same assay as above.
Procedure: as §1
B1 was tested, and the yeast fitness gain was inactive: 0.0567.
B2 was tested, and the yeast fitness gain was inactive: 0.0185.
B3 was tested, and the yeast fitness gain was inactive: 0.014.
With B4 the yeast fitness gain was inactive: 0.118.

What follows are binders tested against SARS-CoV-2 NSP7 in the same assay as above.
Procedure: as §1
In the case of B1, the yeast fitness gain is reported as inactive: 0.0171.
With B2 the yeast fitness gain was inactive: 0.171.
With B3 the yeast fitness gain was inactive: 0.0461.
For B4, the yeast fitness gain was inactive: -0.129.

These binders were tested against SARS-CoV-2 NSP8 in the same assay as above.
Procedure: as §1
In the case of B1, the yeast fitness gain is reported as inactive: -0.0525.
In the case of B2, the yeast fitness gain is reported as inactive: -0.0468.
With B3 the yeast fitness gain was inactive: 0.0482.
B4 was tested, and the yeast fitness gain was inactive: 0.00415.

The binders below were run against SARS-CoV-2 NSP9 in the same assay as above.
Procedure: as §1
With B1 the yeast fitness gain was inactive: 0.0712.
For B2, the yeast fitness gain was inactive: -0.0507.
In the case of B3, the yeast fitness gain is reported as inactive: 0.0516.
B4 was tested, and the yeast fitness gain was inactive: 0.0682.

The binders below were run against SARS-CoV-2 ORF10 in the same assay as above.
Procedure: as §1
For B1, the yeast fitness gain was inactive: -0.0151.
In the case of B2, the yeast fitness gain is reported as inactive: 0.0493.
For B3, the yeast fitness gain was inactive: 0.00311.
B4 was tested, and the yeast fitness gain was inactive: 0.0398.

The binders below were run against SARS-CoV-2 ORF3A in the same assay as above.
Procedure: as §1
B1 was tested, and the yeast fitness gain was inactive: 0.111.
In the case of B3, the yeast fitness gain is reported as inactive: -0.0172.
In the case of B4, the yeast fitness gain is reported as inactive: 0.0462.

What follows are binders tested against SARS-CoV-2 ORF3B in the same assay as above.
Procedure: as §1
In the case of B1, the yeast fitness gain is reported as inactive: -0.0055.
With B2 the yeast fitness gain was inactive: -0.0611.
With B3 the yeast fitness gain was inactive: 0.0388.

These binders were tested against SARS-CoV-2 ORF6 in the same assay as above.
Procedure: as §1
With B1 the yeast fitness gain was inactive: 0.00262.
In the case of B2, the yeast fitness gain is reported as inactive: 0.0478.
In the case of B3, the yeast fitness gain is reported as inactive: -0.00371.

What follows are binders tested against SARS-CoV-2 ORF7A in the same assay as above.
Procedure: as §1
For B1, the yeast fitness gain was inactive: -0.0678.
In the case of B2, the yeast fitness gain is reported as inactive: 0.0252.
For B3, the yeast fitness gain was inactive: -0.00813.

Each binder was assayed against SARS-CoV-2 ORF7B in the same assay as above.
Procedure: as §1
B1 was tested, and the yeast fitness gain was inactive: -0.0384.
With B2 the yeast fitness gain was inactive: -0.00203.
In the case of B3, the yeast fitness gain is reported as inactive: -0.00148.
In the case of B4, the yeast fitness gain is reported as inactive: 0.0902.

What follows are binders tested against SARS-CoV-2 ORF8 in the same assay as above.
Procedure: as §1
In the case of B1, the yeast fitness gain is reported as inactive: 0.102.
In the case of B2, the yeast fitness gain is reported as inactive: 0.054.
B3 was tested, and the yeast fitness gain was inactive: 0.0139.
For B4, the yeast fitness gain was inactive: 0.0439.

Each binder was assayed against SARS-CoV-2 ORF9B in the same assay as above.
Procedure: as §1
For B1, the yeast fitness gain was inactive: 0.00954.
B2 was tested, and the yeast fitness gain was inactive: -0.0215.
B3 was tested, and the yeast fitness gain was inactive: 0.0257.

What follows are binders tested against SARS-CoV-2 ORF9Bwu (the 73-codon ORF) in the same assay as above.
Procedure: as §1
For B1, the yeast fitness gain was inactive: 0.0245.
In the case of B2, the yeast fitness gain is reported as inactive: -0.0288.
B3 was tested, and the yeast fitness gain was inactive: -0.0197.
In the case of B4, the yeast fitness gain is reported as inactive: -0.0156.

Each binder was assayed against SARS-CoV-2 S in the same assay as above.
Procedure: as §1
For B1, the yeast fitness gain was inactive: 0.0376.
With B2 the yeast fitness gain was inactive: 0.0716.
With B3 the yeast fitness gain was inactive: 0.0513.
With B4 the yeast fitness gain was inactive: 0.0125.
